Assay results: a compilation of properties of binary mixtures (doi:10.1016/j.jct.2013.10.027)
Some of these densities may be calculated back from excess volumes.

Assay: xn = mol fraction of the nth substance listed
Details: 101 kPa

OCC(F)(F)F + CCCC[n+]1ccn(C)c1.O=S(=O)([N-]S(=O)(=O)C(F)(F)F)C(F)(F)F
mass density [kg/m3]
Details	x1 = 0.0877	x1 = 0.2626	x1 = 0.4753	x1 = 0.6153	x1 = 0.7568	x1 = 0.8748	x1 = 1
278.15 K	1455.2	–	–	–	–	1433.5	1416.6
283.15 K	1450.3	1448	1443.7	1439.8	1433.7	1426.8	1408.5
288.15 K	1445.4	1442.9	1438.2	1434	1427.3	1419.8	1400.2
293.15 K	1440.5	1437.7	1432.8	–	1421.1	1412.5	1391.8
298.15 K	1435.6	–	1427.3	1422.4	–	1405.6	1383.4
303.15 K	1430.7	1427.6	1422	1416.7	1408.6	1398.9	1374.9
308.15 K	1425.8	1422.6	1416.6	1411	1402.4	1392	1366.2
313.15 K	1421	1417.5	–	1405.4	1396.2	1384.4	1357.4
318.15 K	1416.2	1412.5	–	1399.7	1389.9	1377.5	1348.5
323.15 K	1411.4	1407.6	1400.7	1394.1	1383.8	1370.5	–
328.15 K	1406.6	1402.6	1395.5	1388.4	1377.6	1363.3	1330.1
333.15 K	1401.9	–	1390.2	1382.8	1371.4	1356	1320.7

CCCC[n+]1ccn(C)c1.O=S(=O)([N-]S(=O)(=O)C(F)(F)F)C(F)(F)F + OCC(F)(F)F
x2 = 0
Details	mass density [kg/m3]
278.15 K	1456.1
288.15 K	1446.5
293.15 K	1441.6
298.15 K	1436.8
303.15 K	1432
308.15 K	1427.2
313.15 K	1422.5
318.15 K	1417.8
323.15 K	1413.1
328.15 K	1408.5
333.15 K	1403.8
